According to paper PMC4336329 (PLoS ONE, 2015):
About 2,200 (0.71%) of roughly 310,000 compounds showed an effect of 50% or more. The effect is printed as a negative number. This is one part of the list.

These molecules were tested against human ether-à-go-go-related gene (hERG) potassium channel (human, UniProt Q12809) (assay: primary screen, population patch clamp on CHO cells stably expressing hERG).
Chain of human ether-à-go-go-related gene (hERG) potassium channel (Q12809 whole entry, looked up): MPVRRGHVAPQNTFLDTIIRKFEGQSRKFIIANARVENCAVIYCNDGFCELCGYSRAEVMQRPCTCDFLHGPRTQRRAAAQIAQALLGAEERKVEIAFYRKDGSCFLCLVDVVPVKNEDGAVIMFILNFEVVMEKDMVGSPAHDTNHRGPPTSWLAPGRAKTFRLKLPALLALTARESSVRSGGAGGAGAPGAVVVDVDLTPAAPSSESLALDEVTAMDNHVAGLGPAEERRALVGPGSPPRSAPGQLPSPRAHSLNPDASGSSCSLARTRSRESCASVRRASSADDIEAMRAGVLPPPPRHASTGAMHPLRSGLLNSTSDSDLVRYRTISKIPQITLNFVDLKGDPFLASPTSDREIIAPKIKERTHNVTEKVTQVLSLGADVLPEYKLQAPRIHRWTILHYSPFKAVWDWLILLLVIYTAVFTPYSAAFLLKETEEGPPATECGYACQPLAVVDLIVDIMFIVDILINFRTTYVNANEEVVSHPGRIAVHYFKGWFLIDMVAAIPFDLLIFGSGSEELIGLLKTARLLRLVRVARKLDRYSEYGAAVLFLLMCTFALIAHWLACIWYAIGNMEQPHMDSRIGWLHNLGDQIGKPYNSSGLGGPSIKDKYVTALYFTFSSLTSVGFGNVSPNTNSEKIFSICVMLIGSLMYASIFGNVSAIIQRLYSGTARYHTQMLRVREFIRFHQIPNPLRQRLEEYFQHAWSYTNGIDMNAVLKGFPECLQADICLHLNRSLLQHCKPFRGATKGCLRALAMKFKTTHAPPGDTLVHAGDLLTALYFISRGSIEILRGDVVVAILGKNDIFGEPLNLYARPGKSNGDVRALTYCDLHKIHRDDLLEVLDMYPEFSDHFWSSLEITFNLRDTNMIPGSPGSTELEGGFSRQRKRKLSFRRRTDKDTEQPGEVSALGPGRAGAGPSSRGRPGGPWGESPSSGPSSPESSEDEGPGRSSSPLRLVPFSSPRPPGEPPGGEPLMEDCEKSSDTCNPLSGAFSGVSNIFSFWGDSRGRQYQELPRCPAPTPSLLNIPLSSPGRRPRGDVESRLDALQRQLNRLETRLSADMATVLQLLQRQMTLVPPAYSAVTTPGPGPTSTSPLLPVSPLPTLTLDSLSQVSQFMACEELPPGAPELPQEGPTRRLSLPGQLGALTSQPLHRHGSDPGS

Row | SMILES | hERG current change (%, negative = inhibition) at 1uM
1 | COC(=O)C1=C(CSc2nc3c(cc2C#N)CN(C)CC3)OC(N)=C(C#N)C1c1ccccc1F (stereo not shown) | -18%
2 | CN(C)c1ccc(NC(=O)c2cc3c(=O)n4ccccc4nc3n2C)cc1 | 8.06%
3 | O=C(COc1ccc(Cl)cc1)N1CCCC1 | 1.2%
4 | C=CCNC(=S)N1CC2(C)CN(C(=S)NCC=C)CC(C)(C1)C2=O | 18.8%
5 | Cc1nnc(NC(=O)c2ccc3c(c2)NC(=O)CS3)s1 | 7.12%
6 | CCOC(=O)Cc1csc(NC(=O)CN2CCN(c3ccccc3)CC2)n1 | 24.6%
7 | COCCn1nnnc1C(c1cccc(C(F)(F)F)c1)N1CCOCC1.Cl (stereo not shown) | 19.8%
8 | COc1ccc(C(=O)NC(=S)N2CCNC(=O)C2)cc1Br | 9.03%
9 | COc1ccccc1NC(=O)N(Cc1ccco1)Cc1cc2cc(C)cc(C)c2[nH]c1=O | 5.31%
10 | O=C(NCc1ccccc1F)C1CCN(C(=O)NCc2ccccc2)CC1 | 2.13%
11 | Cn1cc(S(=O)(=O)NCc2ccc(F)cc2)c(=O)n(C)c1=O | 13.8%
12 | O=C(O)/C=C/C(=O)NCc1cn(-c2ccccc2)nc1-c1cccc(Br)c1 | 8.61%
13 | CCOC(=O)c1c(-c2ccc(C)o2)csc1NC(=O)CSc1ncn[nH]1 | 13.4%
14 | COc1cccc(-c2cc(C(=O)O)no2)c1 | -0.258%
15 | CC(=O)c1ccc(NC(=S)N(Cc2ccccc2)C(C)C2CC2)cc1 (stereo not shown) | 14.5%
16 | CC(C)c1ccc(N(CC(=O)NCC2CCCO2)C(=O)Cn2nnc(-c3cccs3)n2)cc1 (stereo not shown) | -8.22%
17 | CC(NC(=O)CN1C(=O)NC(C)(c2cccc3ccccc23)C1=O)c1ccccc1 (stereo not shown) | 8.49%
18 | CC(O)c1nc2ccccc2n1Cc1ccc([N+](=O)[O-])cc1 (stereo not shown) | -18.8%
19 | CN(C)c1cc[n+](Cc2c(Cl)cccc2Cl)cc1.[Cl-] | 13.9%
20 | O=C(/C=C/c1cc(Br)ccc1F)OCC(=O)N1CCCC1 | 9.59%
21 | Cc1ccc(NC(=O)CN2CCN(C(=O)C3CCCO3)CC2)c(C)c1 (stereo not shown) | -6.85%
22 | CCOc1ccc(N(CC(=O)NC2CCCCC2C)S(=O)(=O)c2c(C)noc2C)cc1 (stereo not shown) | 17.2%

Row | SMILES | hERG current change (%, negative = inhibition) at 1uM
23 | O=C(Nc1cccc(Cl)c1)c1ccc2c(c1)OCCO2 | 2.9%
24 | Cc1ccnc(N2CCCC(C(=O)NCc3cccs3)C2)n1 (stereo not shown) | 2.17%
25 | CC(c1ccccc1)[n+]1ccccc1.[O-][Cl+3]([O-])([O-])[O-] (stereo not shown) | 11.3%
26 | COc1cccc(/C=c2/s/c(=C(\C#N)C(=O)N3CCOCC3)n(-c3ccccc3)c2=O)c1 | 14.9%
27 | CCN(CCn1cccn1)C(=O)c1ccc2nc(Cc3ccc(OC)cc3)oc2c1 | -4.61%
28 | COc1cccc(-n2c(Cc3cc(=O)[nH]c(=O)[nH]3)nnc2SC(C)C)c1 | 2.56%
29 | O=C(O)/C(=C\c1ccc(Cl)c([N+](=O)[O-])c1)c1ccc(S(=O)(=O)N2CCCCC2)s1 | -3.2%
30 | NC(=O)CNC(=O)[C@@H]1CC2(CC(c3ccc(Cl)cc3)=NO2)CN1C(=O)c1ccc(Br)cc1 (stereo partly shown) | 9.7%
31 | CC(=O)Oc1ccc2c(c1)C(=O)c1ccccc1CO2 | 3.72%
32 | CCCOc1cccc(C2/C(=C(/O)c3ccc4c(c3)CC(C)O4)C(=O)C(=O)N2CCN2CCOCC2)c1 (stereo not shown) | 9.29%
33 | Cc1cc(C)cc(NC(=S)N2CCC(NC(=O)c3ccccc3C)CC2)c1 | 5.12%
34 | COc1ccccc1Oc1ccc(S(=O)(=O)Nc2cccnc2)cc1 | 15.7%
35 | Clc1ccccc1CN1CCN(c2ccccc2Cl)CC1 | 14.5%
36 | CCOc1ccc(S(=O)(=O)N(C)c2ccc(OCC(=O)NC3=NCCS3)cc2)cc1 | 4.35%
37 | O=C(O)/C=C\C(=O)Nc1cccc(NC(=O)c2ccccc2)c1 | 20.2%
38 | CCN(Cc1ccccc1)C(=O)CCS(=O)(=O)c1ccc2c(c1)oc(=O)n2C | 9.41%
39 | CC(=O)NC(CC(=O)OCC(=O)c1ccc(NC(=O)CC(C)C)cc1)c1ccccc1 (stereo not shown) | -13.9%
40 | COc1cccc(CC(=O)OC(C)C(=O)NCc2ccc3c(c2)OCO3)c1 (stereo not shown) | 2.03%
41 | COc1ccccc1N(CC(O)COc1ccccc1C)S(=O)(=O)c1ccccc1 (stereo not shown) | 8.57%
42 | COc1ccc(N(CC(=O)N/N=C/c2ccccc2F)S(=O)(=O)c2ccccc2)cc1 | -0.884%
43 | Cc1nnsc1C(=O)N(Cc1ccccc1)C(C)C | 7.64%
44 | N/C(=N\OC(=O)c1ccc2c(c1)OCO2)c1ccc([N+](=O)[O-])cc1 | 3.69%

Row | SMILES | hERG current change (%, negative = inhibition) at 1uM
45 | CCOc1ccc(N2CC(C(=O)OCC(=O)c3ccc(OC)cc3)CC2=O)cc1 (stereo not shown) | -12.8%
46 | O=C(CNC(=O)c1cc(Cl)cc([N+](=O)[O-])c1)OCC(=O)N1CCCCC1 | 16%
47 | CN(C)CC1CCCCC1OC(=O)/C=C/c1ccccc1.Cl (stereo not shown) | -0.779%
48 | CCOc1cc(NC(=O)c2ccccc2C(=O)O)c(OCC)cc1NC(=O)c1ccccc1F | 3.52%
49 | Cc1nnc(Sc2nc3c(c(=O)n(C)c(=O)n3C)n2Cc2ccc(Cl)cc2)s1 | -8.06%
50 | Cc1nc2ccc(S(=O)(=O)NCC(=O)N3CCC(C)CC3)cc2s1 | 16.4%
51 | COc1ccc(NS(=O)(=O)c2cccc(C(=O)NNC(=O)c3ccccc3O)c2)cc1 | 6.98%
52 | Cc1cccc(NC(=O)CSc2nnc(CN3CCOCC3)n2C)c1C | 11.7%
53 | COc1ccccc1CC(=O)Nc1ncc(C)s1 | 9.61%
54 | CCNC(=O)CON=C1c2ccccc2-c2ccccc21 | 9.97%
55 | Cc1nc(COC(=O)c2ccc(CO)cc2)cs1 | 10.1%
56 | C/C(N)=C(/C#N)C(=O)CSc1nc2ccccc2c(=O)n1-c1ccccc1C | 12.4%
57 | CCOc1ccc(OCC)c(S(=O)(=O)NCc2ccc3c(c2)OCO3)c1 | 3.22%
58 | O=C(COC(=O)CNS(=O)(=O)c1ccc2ccccc2c1)Nc1ccc2c(c1)OCO2 | 11.4%
59 | CCOC(=O)C1=C(C)N(CCCCCC(=O)O)C(=O)NC1c1cccc([N+](=O)[O-])c1 (stereo not shown) | 16.6%
60 | CC(=Nc1cc(C(=O)c2ccccc2)ccc1N)C1=C(O)CC(C)(C)CC1=O | 10.8%
61 | O=C(/C=C/Nc1ccc(F)cc1Br)c1ccccc1 | 9.82%
62 | COc1ccccc1-n1c(SCC(=O)NCc2ccc3c(c2)OCO3)nc2cc([N+](=O)[O-])ccc21 | 3.55%
63 | COc1ccc(C(=O)C2CCN(CC(=O)Nc3ccccc3F)CC2)cc1 | 2.46%
64 | O=C(CNC(=O)c1ccccc1F)N/N=C/c1ccco1 | 18%
65 | COc1ccc(NC(=O)CN(C)C(=O)CSc2ccc(Br)cc2)cc1 | 5.01%
66 | Oc1ccccc1/C=N/Nc1ncc(Br)cn1 | 10.2%

Row | SMILES | hERG current change (%, negative = inhibition) at 1uM
67 | O=C(CSc1nc2scc(-c3ccco3)c2c(=O)n1-c1ccccc1)N1CCOCC1 | -2.25%
68 | CC(C)C(NS(=O)(=O)c1ccc2c(c1)oc(=O)n2C)C(=O)N1CCN(C2CCCCC2)CC1 (stereo not shown) | 12.4%
69 | Cc1cc(C)n(-c2ccc(S(N)(=O)=O)cc2[N+](=O)[O-])n1 | 5.42%
70 | Cc1noc(NS(=O)(=O)c2ccc(NC(=O)CCCOc3ccc(Cl)cc3Cl)cc2)c1C | 12.4%
71 | O=C(CN1C(=O)NC2(CCCC2)C1=O)NNC(=O)c1ccc(Br)cc1 | 4.51%
72 | N#Cc1cc(NCC2CCCO2)c([N+](=O)[O-])cc1C#N (stereo not shown) | 5.58%
73 | Clc1ccsc1-c1csc(-c2cccnc2)n1 | 16.4%
74 | Cc1ccnc(-n2c(C)cc(C=C3C(=O)N(C)C(=S)N(C)C3=O)c2C)c1 | 2.58%
75 | COc1ccc(C(=O)Cn2cnc3ccccc3c2=O)c(OC)c1 | 6.19%
76 | CCCN(CCC)S(=O)(=O)c1ccc(C(=O)Nc2nnc(CSC)o2)cc1 | 7.65%
77 | CCOc1ccc(C(=O)NC(=S)Nc2cccc(NC(=O)c3ccco3)c2)cc1[N+](=O)[O-] | 10.3%
78 | CC1CC(C)CN(CCCNC(=O)CCNC(=O)Cn2cnc3ccccc3c2=O)C1 (stereo not shown) | 17.7%
79 | Cc1ncsc1CCOC(=O)c1cccnc1.Cl | 15.6%
80 | CN1CCN(C(=O)CCN2C(=O)/C(=C/c3ccccc3Cl)SC2=S)CC1 | 5.36%
81 | O=S(=O)(NCC(c1ccco1)N1CCN(c2ccccc2)CC1)c1ccc(F)cc1 (stereo not shown) | 5.95%
82 | O=C(NCCc1nnc2ccc(NCc3cccnc3)nn12)c1ccccc1F | 9.78%
83 | CC(C)N(Cc1nc2ccccc2c(=O)[nH]1)C(=O)c1ccc(NC(=O)CSc2nnnn2C)cc1 | 10.5%
84 | Cc1ccc(CNC(=O)CSc2nc(=O)n3ccccc3n2)cc1 | -8.24%
85 | Cc1ccc(C(c2sc3nc(C)nn3c2O)N2CCN(CCO)CC2)cc1 (stereo not shown) | 3.61%
